In all, about 33,000 sequences were measured (“E-score (-0.5 to 0.5)”: median about -0.01, highest 2% from about 0.26 on). The list shows a part of the results.
biological target: Ste12 (UniProt P13574); assay: PBM E-score (8-mer binding enrichment) (E-score (-0.5 to 0.5)); higher = stronger / more preferred TF binding; most listed sequences are background and not binding sites; conditions: protein concentration: 200 nM; construct: GST-DNA-binding domain
In short: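 PURExpress in vitro transcription/translation supplied GST-tagged yeast transcription factors, either full-length or DNA-binding domain. Applied at about 100-200 nM to universal all-10-mer Agilent arrays double-stranded by primer extension, the bound protein was detected with fluorescent anti-GST. E-scores, modified Wilcoxon-Mann-Whitney statistics, were given by the Universal PBM Analysis Suite to ungapped eight-base words pooled with their reverse complements after masliner normalisation.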

| Sequence | PBM E-score |
| --- | --- |
| AAAAGAAC | 0.126 |
| CTCGATAA | 0.0982 |
| AAAATAAT | 0.293 |
| CGGTATGC | -0.222 |
| AGACACAG | -0.124 |
| CACCACGA | -0.0713 |
| ACGGCATG | -0.107 |
| CAGTATGA | 0.0511 |
| CTGGTTGA | -0.179 |
| GGAAGCTA | -0.0367 |
| AGTAGCGA | -0.169 |
| AGTCCGGA | -0.0502 |
| CCAATAAA | 0.148 |
| GACCTGTA | -0.01 |
| CTTTAAGA | 0.158 |
| GAGCGACA | 0.0587 |
| GCTGAGCA | -0.15 |
| GAAAGTGC | -0.209 |
| GTTAACCA | 0.0343 |
| CACAGTAA | 0.155 |
| GCCCGCCC | 0.257 |
| ACTCACAT | -0.0517 |
| ATTATTCC | 0.172 |
| GTGCAAGA | -0.145 |
| ATGTGACG | -0.0421 |

| Sequence | PBM E-score |
| --- | --- |
| ACCGTTCA | -0.0688 |
| ACGCAGAC | -0.124 |
| ATGGGTGG | -0.0567 |
| GAATACCC | -0.00671 |
| CGCCAGAC | -0.0884 |
| ACAAGTAA | 0.073 |
| CAGACTCC | -0.121 |
| CTTTATAC | 0.0886 |
| CATCCGCC | -0.00736 |
| AGGCTGGA | -0.218 |
| ACACGATC | 0.0346 |
| ACTAATCT | -0.0562 |
| ATGACCTA | -0.0243 |
| CGCGCCCC | 0.0693 |
| CCGTCATC | -0.166 |
| ATGATTCA | 0.112 |
| AGATTAGA | 0.00999 |
| GAGCTGCA | -0.167 |
| AAGTTCGT | -0.226 |
| CTGGTCTA | -0.0201 |
| GCCGACTA | 0.0127 |
| AGTAGAAT | 0.171 |
| ACCGCTTG | 0.0177 |
| CAACGGGA | 0.0118 |
| CGACATCC | -0.064 |

| Sequence | PBM E-score |
| --- | --- |
| AAGGCAAA | 0.186 |
| ACGTTCTA | 0.0462 |
| AGATTTCC | -0.00453 |
| AACAGGAG | 0.0417 |
| CGCGTGAC | -0.00653 |
| GTGGTACA | -0.165 |
| TCGCGAAA | 0.205 |
| CCGCATCG | -0.0263 |
| TACGAGAA | 0.0731 |
| TGAAATAA | 0.23 |
| CTAAAATC | 0.104 |
| GCTTTTAA | -0.0048 |
| AGACGAGC | -0.255 |
| GCCTCCAA | -0.0652 |
| CCATGACG | -0.11 |
| GCCGGAGA | 0.0583 |
| CTGCGCTA | -0.0645 |
| AGGCACAC | -0.187 |
| GATAAGCA | 0.0471 |
| ACGCAGCA | -0.157 |
| CATCTGAG | -0.0898 |
| AGGGGTGC | -0.124 |
| AGCTTCGG | 0.0665 |
| ATGATTGC | 0.146 |
| CACTATCG | -0.0737 |

| Sequence | PBM E-score |
| --- | --- |
| TGATGGCA | -0.0712 |
| CGATACTA | 0.197 |
| CCTCGAGG | 0.0346 |
| CTTCCGGC | 0.00793 |
| CTCCGCAA | -0.0934 |
| AGAAGATA | 0.0537 |
| CGTTTATA | 0.139 |
| CCATTAAA | 0.0806 |
| CACTGGCC | -0.179 |
| ACTCTCGG | -0.0433 |
| TCCGAAAA | 0.145 |
| ACCCTGAG | -0.0628 |
| GACGCACA | -0.0101 |
| ATAACTAG | 0.146 |
| CTATGATC | -0.152 |
| ACACCTCA | 0.0497 |
| ACCGGCTC | -0.175 |
| CCAGGTTA | -0.00715 |
| GTTCAAAA | 0.107 |
| GAATCGGC | 0.0405 |
| CAAAGACC | 0.0599 |
| CACCCATA | 0.105 |
| GATGGACA | 0.0404 |
| GTGAGAGA | -0.0522 |
| ACGTGACC | -0.126 |

| Sequence | PBM E-score |
| --- | --- |
| GATATACC | -0.118 |
| AAACTTCC | -0.0123 |
| GATGTGAA | 0.236 |
| AACGCGTT | 0.17 |
| GTTCCCCA | -0.0568 |
| TAGGAACA | -0.0772 |
| CGTTTGAG | 0.111 |
| CCACACGA | -0.236 |
| AAACGAAA | 0.248 |
| AAGCTCAG | -0.179 |
| TAAGCTCA | -0.18 |
| CATAACGC | 0.0909 |
| CATAGCGC | 0.0106 |
| GAACTTCC | -0.12 |
| AGATATCA | 0.192 |
| TGGTATAA | 0.0918 |
| AATCGCGC | 0.0772 |
| AAAATTCG | 0.215 |
| ACCCTTAT | -0.0679 |
| CCCCCGGA | -0.0868 |
| CGCGGTGA | 0.14 |
| GAAGCAAC | -0.0343 |
| GCGAAATA | 0.0494 |
| AACGCGTC | 0.0997 |
| AAAACATC | 0.301 |

| Sequence | PBM E-score |
| --- | --- |
| CAACAGAG | 0.0388 |
| CCATACCC | 0.128 |
| CGGAGACA | -0.0644 |
| CTGTGGGC | -0.0734 |
| GGCACCGA | -0.16 |
| AGGAGGGC | -0.081 |
| CTGGGAGC | -0.309 |
| CCATTCCA | -0.0508 |
| CGAATCAG | -0.0178 |
| ACACTCGT | -0.165 |
| CTCATCTA | -0.0777 |
| TACCGGGA | 0.109 |
| AGTACAGA | 0.0239 |
| AACATTAA | 0.301 |
| CGCGATTC | 0.103 |
| AGATCACC | -0.151 |
| ACCGCATC | 0.0773 |
| CCACTGAG | -0.197 |
| GATCCAAA | 0.169 |
| TACTACTA | 0.127 |
| AGCACTGG | -0.0847 |
| AGTCCGAG | -0.141 |
| ACAACCAT | 0.173 |
| AGCTCACC | 0.0193 |
| GATTTACC | 0.15 |

| Sequence | PBM E-score |
| --- | --- |
| CTAGCTAC | -0.254 |
| ATGGCAAT | -0.0437 |
| GACCGGGA | -0.0286 |
| GTAATTGA | 0.0832 |
| AACAAGCT | 0.0833 |
| GTTTGGGA | 0.189 |
| CCACCCGC | 0.0265 |
| ACACCACT | 0.008 |
| AATGTCCA | -0.0659 |
| CAAATTCA | 0.0763 |
| GATAGTGC | -0.109 |
| ACTAATGG | 0.147 |
| CGGCGCCA | -0.00942 |
| ACGCCCCG | 0.103 |
| CCTGACAC | 0.161 |
| CAGAGCCG | -0.0185 |
| GATTCAAA | 0.26 |
| CATCCCAC | -0.0354 |
| AGTGTGTA | 0.055 |
| GAGTTATC | -0.0269 |
| CACCTTTA | -0.0515 |
| ATACCTAG | 0.0661 |

Source: the supplement of paper PMC3334620
